Results published in patent publication US20210188940A1 (BIOAGE LABS, published 2021).
One block for each binder: values may come before it.

How the values were obtained:
Assay in all cases: ELISA, ligand coated on plate, RAGE-Fc titrated, anti-IgG Fc-HRP detection; apparent Kd
HMGB1 (amphoterin) = biological target: T1, HMGB1 (amphoterin) (UniProt P09429 1-215, limits assumed)
T1 sequence (looked up): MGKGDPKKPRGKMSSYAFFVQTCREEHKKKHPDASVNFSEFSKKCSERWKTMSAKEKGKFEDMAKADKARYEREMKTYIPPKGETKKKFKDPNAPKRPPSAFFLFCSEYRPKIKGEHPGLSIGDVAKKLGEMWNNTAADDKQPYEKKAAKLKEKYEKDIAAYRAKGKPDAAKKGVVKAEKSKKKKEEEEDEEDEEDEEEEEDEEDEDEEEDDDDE
Experimental: (§1) Functional ELISA assays were performed to assess the ligand binding characteristics of RAGE-Fc fusion proteins. Apparent binding affinities of RAGE-Fc fusion proteins to the RAGE ligands CML-HSA, HMGB1, S100A9 and S100A12 were measured for the following fusion proteins: Construct #1 (SEQ ID NO: 5), Construct #9 (SEQ ID NO: 53), Construct #10 (SEQ ID NO: 12), Construct #12 (SEQ ID NO: 15), and Construct #16 (SEQ ID NO: 16). Previous experiments were carried out to determine fundamental functionality of an ELISA, optimal coating concentrations and volumes, a dynamic range for the RAGE-Fc constructs, as well as optimized antibody dilutions and TMB development times.
(§2) RAGE ligands CML-HSA, HMGB1, S100A9 and S100A12 were separately coated onto a coated plate (MaxiSorp™) at a concentration of 50 nanomolar (nM), 100 microliters (μL) per well. RAGE ligand CML-HSA was separately coated onto a coated plate (MaxiSorp™) at a concentration of 100 nanograms (ng), 100 μL per well. The plates were then incubated overnight at 4° C. to allow the protein to bind to the plate coating. Following the coating step, the plates were washed once with 150 μL of wash solution (2.67 mM potassium chloride, […], 136.9 mM sodium chloride, 8.10 mM sodium phosphate dibasic, 0.05% Tween-20). […] After the blocking step, two washes were performed with the wash solution. The RAGE-Fc fusion protein was then incubated on the wells in log10 dilution with each separate ligand for 120 minutes at 37° C. while shaking. After the RAGE-Fc binding step, three washes were performed with the wash solution. Binding of the RAGE-Fc fusion to […], HMGB1, S100A9, and S100A12 was detected with a horseradish peroxidase (HRP) conjugated antibody with antigen specificity to IgG Fc (Abcam, Cat. No. ab99759). 100 μL of antibody diluted 1:5000 in DBPS was added to the assay wells, followed by 60 minutes of incubation at 37° C. while shaking. The wells were then washed four times with the wash solution. 100 μL of TMB (ThermoFisher Scientific, Cat. No. 34029) was then added to each well.

S100A9 = biological target: T2, S100A9 (UniProt P06702 1-114, limits assumed)
T2 sequence (looked up): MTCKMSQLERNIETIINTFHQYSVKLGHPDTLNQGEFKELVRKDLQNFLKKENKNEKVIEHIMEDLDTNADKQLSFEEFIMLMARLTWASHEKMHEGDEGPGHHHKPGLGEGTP
Experimental: as §1, §2

S100A12 = biological target: T3, S100A12 (UniProt P80511 1-92, limits assumed)
T3 sequence (looked up): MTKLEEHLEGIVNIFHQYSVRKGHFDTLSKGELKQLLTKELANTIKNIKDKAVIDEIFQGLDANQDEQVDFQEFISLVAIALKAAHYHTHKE
Experimental: as §1, §2

[1] = biological target: T4, CML-HSA (carboxymethylated human serum albumin) (human, UniProt P02768, carboxymethylated (CML); modified sites not stated)
T4 construct: An advanced glycation end-product form of HSA, coated on the ELISA plate
T4 sequence (P02768 25-609 limits assumed): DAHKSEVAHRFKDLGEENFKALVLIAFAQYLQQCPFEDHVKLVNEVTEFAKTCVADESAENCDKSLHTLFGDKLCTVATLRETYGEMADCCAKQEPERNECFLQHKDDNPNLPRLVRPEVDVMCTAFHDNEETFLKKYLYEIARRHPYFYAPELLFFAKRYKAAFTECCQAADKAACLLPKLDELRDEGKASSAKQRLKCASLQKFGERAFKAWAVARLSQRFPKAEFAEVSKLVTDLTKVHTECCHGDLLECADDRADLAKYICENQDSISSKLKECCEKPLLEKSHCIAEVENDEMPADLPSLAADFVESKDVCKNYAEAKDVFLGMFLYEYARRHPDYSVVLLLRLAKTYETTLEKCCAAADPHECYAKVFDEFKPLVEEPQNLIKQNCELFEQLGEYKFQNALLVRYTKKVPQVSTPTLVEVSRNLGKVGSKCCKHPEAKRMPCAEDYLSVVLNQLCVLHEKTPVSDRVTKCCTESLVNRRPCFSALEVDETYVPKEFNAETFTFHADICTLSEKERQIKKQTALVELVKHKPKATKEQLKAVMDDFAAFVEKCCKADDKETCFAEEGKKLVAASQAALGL
Experimental: as §1, §2

Kd (HMGB1 (amphoterin)): 15 nM | Kd (S100A9): 41 nM | Kd (S100A12): 46 nM
B1: Construct #10: RAGE V-C1-C2-V1 stem (M/A)-IgG4-hinge(S/P-AA)-(IgG4CH2-CH3) (Fc fusion)
chain: AQNITARIGEPLVLKCKGAPKKPPQRLEWKLNTGRTEAWKVLSPQGGGPWDSVARVLPNGSLFLPAVGIQDEGIFRCQAMNRNGKETKSNYRVRVYQIPGKPEIVDSASELTAGVPNKVGTCVSEGSYPAGTLSWHLDGKPLVPNEKGVSVKEQTRRHPETGLFTLQSELMVTPARGGDPRPTFSCSFSPGLPRHRALRTAPIQPRVWEPVPLEEVQLVVEPEGGAVAPGGTVTLTCEVPAQPSPQIHWMKDGVPLPLPPSPVLILPEIGPQDQGTYSCVATHSSHGPQESRAVSISIIEPGEEGPTAGEGFDKVREAEDSPQHA[letters of human IgG4 Fc with S228P F234A L235A (EU numbers) left out]
notes: also called esRAGE-Fc fusion

Kd [1]: 6 nM | Kd (HMGB1 (amphoterin)): 2 nM | Kd (S100A9): 13 nM | Kd (S100A12): 9 nM
B2: Construct #9: RAGE V-C1-C2-shortened stem-VH8aa-IgG4-hinge(S/P-AA)-(IgG4CH2-CH3) (Fc fusion)
chain: AQNITARIGEPLVLKCKGAPKKPPQRLEWKLNTGRTEAWKVLSPQGGGPWDSVARVLPNGSLFLPAVGIQDEGIFRCQAMNRNGKETKSNYRVRVYQIPGKPEIVDSASELTAGVPNKVGTCVSEGSYPAGTLSWHLDGKPLVPNEKGVSVKEQTRRHPETGLFTLQSELMVTPARGGDPRPTFSCSFSPGLPRHRALRTAPIQPRVWEPVPLEEVQLVVEPEGGAVAPGGTVTLTCEVPAQPSPQIHWMKDGVPLPLPPSPVLILPEIGPQDQGTYSCVATHSSHGPQESRAVSISIIEPGEEGPTAGGTLVTVSS[letters of human IgG4 Fc with S228P F234A L235A (EU numbers) left out]
notes: also called RAGE-Fc fusion lacking the C-terminal 13 amino acid RAGE stem

Kd [1]: 88 nM | Kd (HMGB1 (amphoterin)): 26 nM | Kd (S100A9): 266 nM | Kd (S100A12): 180 nM
B3: Construct #1: RAGE V-C1-C2-Natural Stem-short linker-IgG1 hinge-(IgG1CH2-CH3) (Fc fusion)
chain: not shown
notes: also called RAGE-Fc fusion in the prior art; commercial RAGE-Fc fusion protein
